The structures appear in SMILES notation. ± gives the uncertainty stated by the source. In all, about 9,900 compounds were measured (“viability index relative to DMSO control”: median about 1, lowest 2% from about 0.85 on). The list shows a part of the results.

In this assay the test system is Plasmodium falciparum NF54 stage V gametocytes. Briefly: viability index relative to DMSO control (fraction); higher = less gametocyte killing. The note with it: 2.5 µM, library set: Broad Institute DOS, incubation time: 72 h. An outline of the steps:
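P. falciparum NF54 stage V gametocytes (serum-free medium, 0.75% gametocytemia, 1.25% hematocrit) were exposed to compound at 2.5 µM for 72 hr at 37°C under low oxygen, then stained with MitoTracker Red CMXRos and saponin for one to two hours. Red particles of 20–70 µm2 in one field per well were counted, and the viability index is that count scaled to the plate mean of solvent-only wells.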
As for `O=C(Nc1cc(F)ccc1F)N[C@H]1CC[C@@H](CCn2cc(C3CCCCC3)nn2)O[C@H]1CO`, the viability index turned out to be 1.04 ± 0.074.

With `CN(C)CC(=O)N1[C@H](CO)[C@@H](c2ccc(-c3cccc(C(=O)N(C)C)c3)cc2)[C@@H]1C#N`, the viability index turned out to be 1.1 ± 0.012.

Consider `CCC(=O)N1[C@H](CO)[C@H](c2ccccc2)[C@H]1CN(CC)C(=O)c1cccc(F)c1`, for which the viability index is 1.07 ± 0.035.

For the compound `COc1ccccc1CNC(=O)C[C@@H]1CC[C@H]2[C@@H](COC[C@@H](O)CN2Cc2ccc3c(c2)OCO3)O1`, the viability index amounted to 1.085 ± 0.0067.

Compound `Cc1noc(C)c1NC(=O)N[C@@H]1C=C[C@@H](CC(=O)Nc2ccc(-c3ccccc3)cc2)O[C@@H]1CO` came in with a viability index of 0.979 ± 0.1.

`CO[C@H]1CN(C)C(=O)c2ccc(NC(=O)C3CC3)cc2OC[C@H](C)N(C(C)=O)C[C@@H]1C` showed a viability index of 1.11 ± 0.035.

`C[C@@H]1CN([C@H](C)CO)C(=O)c2ccccc2-c2ccccc2CO[C@@H]1CN(C)Cc1ccccc1C(F)(F)F` registered a viability index of 0.806 ± 0.11.

Compound `COc1cccc(CNC(=O)[C@H]2[C@H](CO)[C@H]3Cn4c(ccc(-c5cncnc5)c4=O)[C@H]3N2C)c1` displayed a viability index of 0.9922 ± 0.0064.

For the compound `C[C@@H]1CN([C@H](C)CO)C(=O)Cc2cc(N(C)C)ccc2O[C@@H]1CN(C)Cc1ccc(-c2ccccc2)cc1`, the viability index is 0.98 ± 0.019.

`CO[C@@H](CN(C)Cc1ccc2c(c1)OCO2)[C@H](C)CN(C(=O)Nc1ccc(F)cc1)[C@@H](C)CO` showed a viability index of 1.03 ± 0.042.

On to `CO[C@@H](CN(C)S(=O)(=O)c1cccc(Cl)c1)[C@H](C)CN(C(=O)Nc1ccccc1F)[C@H](C)CO`, for which the viability index is 1.05 ± 0.049.

In turn, `C[C@@H]1CN([C@H](C)CO)C(=O)c2cc(NS(=O)(=O)c3ccc(Cl)cc3)ccc2O[C@@H](C)CCCCO[C@@H]1CN(C)Cc1ccncc1` showed a viability index of 1.01 ± 0.031.

Take `C[C@H](CO)N1C[C@H](C)[C@@H](CN(C)S(=O)(=O)c2ccc(F)cc2)OCCCC[C@H](C)Oc2ccc(N(C)C)cc2C1=O`: the viability index was determined as 1.04 ± 0.11.

The compound `COc1ccccc1S(=O)(=O)N(C)C[C@@H]1OCc2ccccc2-c2ccccc2C(=O)N([C@@H](C)CO)C[C@@H]1C` showed a viability index of 1.01 ± 0.082.

`C[C@@H]1CCCCO[C@H](CN(C)CC2CCCCC2)[C@H](C)CN([C@@H](C)CO)C(=O)c2cc(NS(C)(=O)=O)ccc2O1` gave a viability index of 1.11 ± 0.12.

`CN1c2ccc(Br)cc2[C@H]2[C@H](CCN2C(=O)Nc2cccc(F)c2)[C@H]1CO` showed a viability index of 1.108 ± 0.0082.

With `O=C(CC1CC1)N1CC[C@@H]2[C@@H](CO)Nc3ccc(-c4ccc(F)cc4)cc3[C@@H]21`, the viability index was found to be 1.09 ± 0.05.

In turn, `COc1cccc(NC(=O)C[C@@H]2CC[C@@H]3[C@@H](COc4ccc(NC(=O)C5CC5)cc4C(=O)N3C)O2)c1` displayed a viability index of 1.17 ± 0.13.

`CN(C[C@H]1[C@H](c2ccccc2)[C@@H](CO)N1CC1CC1)C(=O)c1ccc(F)cc1` gave a viability index of 0.953 ± 0.029.

`C[C@H](NC(=O)[C@@H]1[C@@H](CO)[C@@H]2Cn3c(ccc(-c4ccccc4)c3=O)[C@@H]2N1C)c1ccccc1` had a viability index of 1.07 ± 0.031.

`CC(C)[C@@H]1COCc2cnnn2CCC[C@@H](C)C(=O)N1` returned a viability index of 1.07 ± 0.071.

On to `CO[C@@H](CN(C)C(=O)C1CCOCC1)[C@@H](C)CN([C@H](C)CO)S(=O)(=O)c1ccccc1`, for which the viability index was 1.072 ± 0.0076.

For `COc1ccc(CN(C)C[C@H]2OCCCC[C@H](C)Oc3ccc(NC(=O)C4CCCCC4)cc3C(=O)N([C@@H](C)CO)C[C@H]2C)cc1`, the viability index came out at 1.1 ± 0.013.

`N#Cc1cccc(-c2ccc([C@H]3[C@@H]4CN(Cc5ccccc5)C[C@H]3N4)cc2)c1` yielded a viability index of 1.1 ± 0.12.

Compound `CCC(=O)N1Cc2cc(C(=O)N3CCCCC3)nc(-c3cccc(-c4cccnc4)c3)c2[C@H]1CCO` showed a viability index of 1.03 ± 0.011.

For the compound `CC(C)C#Cc1ccc([C@H]2[C@@H](C#N)N(C(=O)c3cccc(F)c3)[C@@H]2CO)cc1`, the viability index was 1.21 ± 0.075.

Compound `N#Cc1ccc(-c2ccc([C@@H]3[C@H]4CNC[C@@H]3N4Cc3ccc4c(c3)OCO4)cc2)cc1` yielded a viability index of 0.924 ± 0.017.

In the case of `CCCNC(=O)N1[C@H](C#N)[C@H](c2ccccc2-c2cccc(C)c2)[C@@H]1CO`, the viability index came out at 0.999 ± 0.073.

`O=C(C[C@@H]1C=C[C@H](NC(=O)Nc2ccc3c(c2)OCO3)[C@@H](CO)O1)NCCCN1CCOCC1` showed a viability index of 1.03 ± 0.07.

In turn, `COc1ccc(CN2CC3(C2)[C@H](c2ccccc2)[C@@H](CO)N3CC2CCCC2)cc1` yielded a viability index of 0.923 ± 0.083.

`COCC(=O)N1C[C@@]2(C1)CN([C@@H](CO)c1c2c2ccc(OC)cc2n1C)S(C)(=O)=O` yielded a viability index of 1.01 ± 0.085.

As for `O=C(c1ccccc1F)N1CC(=O)N2[C@@H](CO)[C@@H](c3ccc(C#Cc4ccccc4)cc3)[C@@H]2C1`, the viability index came out at 1.02 ± 0.092.

Compound `O=C(Nc1cc(F)ccc1F)N[C@@H]1CC[C@@H](CCn2cc(C3CCCCC3)nn2)O[C@@H]1CO` gave a viability index of 1.03 ± 0.021.

Compound `Cc1cc(C(=O)Nc2ccc3c(c2)C(=O)N(C)[C@H]2CC[C@H](CC(=O)NCc4ccc(-c5ccccc5)cc4)O[C@H]2CO3)no1` returned a viability index of 1.1 ± 0.1.

In the case of `CO[C@H]1CN(C)C(=O)c2ccc(NC(C)=O)cc2OC[C@H](C)N(C(=O)c2cnccn2)C[C@H]1C`, the viability index was found to be 1.06 ± 0.08.

The compound `Cc1noc(C)c1S(=O)(=O)Nc1ccc2c(c1)CC(=O)N([C@H](C)CO)C[C@H](C)[C@@H](CN(C)Cc1ccc(Oc3ccccc3)cc1)O2` registered a viability index of 0.9336 ± 0.0034.

For `O=S(=O)(c1ccc(F)cc1)N1C[C@H]2[C@@H](c3ccccc31)[C@@H](CO)N2Cc1ccccc1Cl`, the viability index came to 0.9129 ± 0.0022.

`C[C@@H]1CN([C@@H](C)CO)C(=O)c2cccc(NS(C)(=O)=O)c2O[C@H]1CN(C)Cc1ccc(-c2ccccc2)cc1` came in with a viability index of 1.01 ± 0.029.

Compound `CC(=O)N1[C@@H](CO)[C@@H](c2ccc(C3=CCCC3)cc2)C12CN(C(=O)NC(C)C)C2` had a viability index of 1.1 ± 0.027.

As for `CC[C@@H]1C/C=C\C[C@@H](c2ccc(OC)cc2OC)NC(=O)[C@@H](C)CC(=O)N1`, the viability index came out at 1.02 ± 0.025.

For `COc1ccc(NC(=O)N(C)C[C@H]2OCc3ccccc3-c3ccccc3C(=O)N([C@H](C)CO)C[C@@H]2C)c(OC)c1`, the viability index worked out at 1.07 ± 0.077.

Regarding `C[C@@H]1CCCCO[C@@H](CN(C)C(=O)Nc2cccc3ccccc23)[C@H](C)CN([C@@H](C)CO)C(=O)c2cc(NC(=O)CCC(F)(F)F)ccc2O1`, the viability index was found to be 1 ± 0.061.

In the case of `COc1cccc(S(=O)(=O)N2CCCCN3[C@H](CO)[C@@H](c4ccc(C#CCC(C)C)cc4)[C@H]3C2)c1`, the viability index was 0.926 ± 0.059.

`COc1ccc(-c2ccc3c(c2)[C@@H]2[C@@H](CCN2C(=O)c2cccc(F)c2)[C@H](CO)N3)cc1` had a viability index of 0.848 ± 0.042.

`COc1ccc(NC(=O)N(C)C[C@@H]2OCc3ccccc3-c3ccccc3C(=O)N([C@H](C)CO)C[C@H]2C)c(OC)c1` registered a viability index of 0.898 ± 0.011.
